Laboratory results from patent US20140045779A1, “COMPOUNDS CONTAINING AN ALICYCLIE STRUCTURE AND ANTI-TUMOR APPLICATION” (priority 2011, published 2014).
In brackets after ≈: the same amount, converted by molar mass.

Tests used:
[1] = test system: human colorectal cancer cell line HT29; test: cells; details: HT-29, read-out: IC50, anti-proliferative effect on HT29
[2] = test system: human pancreatic cancer cell line Panc-1; test: cells; details: PANC-1, read-out: IC50, anti-proliferative effect on Panc-1 cells

SMILES	IC50 [1] [µg/mL]	IC50 [2] [µg/mL]
O=C1C2CC3CC(C2)OC1C3 (centres unmarked) [Example 43, 2-oxaadamantan-4-one]	54.1 (≈ 356 µM)	26.8 (≈ 176 µM)
OC12CC3CC(CC(C3)O1)C2 [Example 47, 2-oxaadamantan-1-ol]	38.3 (≈ 249 µM)	17.6 (≈ 114 µM)
COc1cc(C23CN4CN(C2)CC(c2cc(OC)c(OC)c(OC)c2)(C4)C3=O)cc(OC)c1OC [Example 62, (1r,3r,5r,7r)-5,7-bis(3,4,5-trimethoxyphenyl)-1,3-diazaadamantan-6-one]	3.62 (≈ 7.47 µM)	3.26 (≈ 6.73 µM)
CCCCCNC12CN3CN(CN(C3)C1)C2 [Example 68, (1s,3s,5s)-N-pentyl-1,3,5-triazaadamantan-7-amine]	1.03 (≈ 4.59 µM)	3.4 (≈ 15.2 µM)
